Data from article PMC10668032.
The list shows a part of the results. At the low end of the ranking the order means little.

biological target: SIX1-Q177R homeodomain (UniProt Q15475); assay: universal protein binding microarray; conditions: Universal all-10-mer PBM (8x60K, AMADID 030236), 300 nM GST-tagged protein, Alexa Fluor 488 anti-GST; buffer, salt, pH and temperature not stated; high values mean tight binding; most listed sequences are background and not binding sites; double strand, one strand shown

Sequence | binding signal [E-score]
TACGGGAA | 0.0745
TACGGTAA | -0.12
AACCAGCA | -0.0764
CACGACTG | 0.19
GCCCTTGA | -0.0537
CATCGCAG | -0.0432
CCGTGCCC | 0.123
CGCTGTCA | -0.235
AATATACC | -0.0841
CGTACCCA | 0.0716
GATGGGGA | 0.0927
CAACCTCA | 0.0213
CAGGCATA | -0.117
AATTTAGT | -0.0564
CTGATAAA | -0.0381
CGCCGGAA | -0.197
ATTCGTAC | -0.0214
CTTCATCC | -0.254
ACTCGTCG | -0.0565
GTAAACTA | -0.0676
AGTAACAC | 0.424
TACGCACA | -0.124
GGCATCTA | -0.115
GGCGCTTA | -0.123
AGTTGTGC | 0.0318

Sequence | binding signal [E-score]
AGCCAAAA | -0.211
CTGCTGCA | 0.0441
CAATGCGC | -0.0954
GTTAAAAA | -0.0664
CAGTCACG | -0.0985
AAGTAGCC | -0.273
TCAACTCA | -0.257
CTTTTACA | 0.17
ATTAGGTC | -0.286
GCTGCCCA | -0.0261
AGAAAGGC | -0.321
AGCCGATC | 0.024
AATACTAG | -0.0474
CCACCCTC | 0.128
AGGGCGGC | -0.165
ACGAGTCC | -0.0848
CATGGCAA | -0.336
ATCAGAAA | -0.0539
TATACCGA | -0.044
AACCAAGC | -0.185
CATTAACC | 0.066
GCGCGGTA | 0.108
AAACCTCG | -0.0813
AAAGGTGG | -0.184
GAGGACAC | 0.401

Sequence | binding signal [E-score]
ACTTTTTC | -0.012
AATGAAAC | -0.0654
CGGTACCC | 0.103
CTGATTAA | -0.18
GGGAGAGA | -0.174
TGATTCCA | 0.0627
GTGCTGAA | -0.0358
CCGAACGG | 0.117
GGATGCCC | -0.0827
AAGCGCAG | -0.199
AAAACTTC | -0.12
ATGACGCG | 0.0471
GTCTAGCA | -0.0411
ACCGAAGT | 0.167
TGCGGGAA | -0.179
AACTGTGG | 0.119
GCGATCCC | 0.182
CACGAGGC | 0.0535
TCGAAGCA | -0.166
TTGGCAAA | -0.246
AGACCCCG | 0.281
GGATCCTA | 0.147
AGCACTAG | -0.0435
AGGTTGGC | 0.0013
AGGAATCC | 0.133

Sequence | binding signal [E-score]
AACGGTAG | 0.028
CGTATATA | -0.034
ATTCCTAC | -0.068
AGTCAGCC | -0.152
GCCCAAGA | -0.105
CCCAGAGA | -0.084
GATCTAGC | 0.0292
AAATGTCT | -0.316
AATATGAT | -0.177
AATGACTG | -0.161
CAGTCTCC | 0.00555
GATAACGA | -0.0492
CAAGCCAA | -0.0923
CAGTTCCC | -0.144
ACTACTCC | 0.163
CATCATCG | -0.0887
AGACCATG | -0.124
CTGAATTC | -0.0841
CGCTAACC | 0.0815
AGAGTAGC | 0.0138
AAGATCTG | -0.138
GTTTATTA | 0.0798
CAGCCTAA | -0.2
GTCAAGAC | 0.0799
CTGCTTAA | -0.177

Sequence | binding signal [E-score]
GGAAAAAC | -0.0488
AATGAAGA | -0.172
AATTCCCC | -0.185
CAGAGGCA | -0.085
GAGATGCC | -0.271
AAGGAGCT | -0.028
ACGGACAT | -0.0259
CTGAATTA | -0.0832
CGACGGCG | -0.0488
ACTTGACA | 0.0805
GTGATTGA | -0.0375
ATGTGTGG | -0.116
CTGCCCTC | 0.0564
AGGAGACT | -0.13
ATGAGCTG | -0.0635
CGCAATGA | 0.0288
CAAAGTGA | -0.0091
ACATATAG | -0.0495
CTACCTAA | -0.0501
TAGATCAA | -0.0713
CGGATCAA | 0.0498
CCGGAGGC | -0.104
AAGTCGCT | -0.0363
AGAGGCTA | -0.183
AGCTTTAA | -0.0515

Sequence | binding signal [E-score]
AGGACAGG | -0.153
CGCGTCAA | 0.00889
CGTGAGTA | 0.0183
CAGAGGTC | 0.038
GCATGAGA | -0.248
TAGCTCGA | -0.047
AGTCACGC | 0.0482
AAAGAATC | -0.0801
ACGTTCCG | -0.168
GTCACATA | 0.138
GGGAGGCA | -0.0888
GTCCCTAA | -0.104
AATCTTGA | -0.0555
TCGCGCGA | -0.2
AGTTCTAC | 0.0388
ACATGATA | -0.0885
GTTATGTA | -0.148
GGGCGAGA | -0.145
ATCTTGGA | 0.0163
CCCGAGAG | -0.00821
AGCGACTG | -0.154
CGTTAACG | -0.0648
ATATACCA | -0.0807
GTTTTTAA | -0.149
AAATGGAC | -0.141

Sequence | binding signal [E-score]
GGCGTGGA | 0.0477
ATGCCCTC | -0.195
ACATTGCT | -0.0178
AATCGCCT | -0.282
GTAGCTCA | -0.0975
TACCTCCA | -0.0368
CATTGCGA | -0.0661
GTTGCTCA | -0.0294
GAGCCTCA | -0.286
ATGTCACC | 0.0878
GCACCCAA | 0.154
AGCAATTG | -0.194
AGCATGTG | -0.0787
ACGAAGGG | 0.00825
CCCGGTTC | 0.152
CGCGGTGA | -0.0315
AACTTAGC | -0.189
GCGAGGTA | 0.0146
CCCGACAC | 0.45
TCAACCCA | -0.029
CATCTCTA | -0.0868
ACTTGCTC | -0.126
